# Whole data set: some 33,000 sequences, median “E-score (-0.5 to 0.5)” near -0.035, cut for the highest 2% near 0.34. This is one part of the list.
# Biological target: T1, Mot3 (UniProt P54785)
# T1 sequence: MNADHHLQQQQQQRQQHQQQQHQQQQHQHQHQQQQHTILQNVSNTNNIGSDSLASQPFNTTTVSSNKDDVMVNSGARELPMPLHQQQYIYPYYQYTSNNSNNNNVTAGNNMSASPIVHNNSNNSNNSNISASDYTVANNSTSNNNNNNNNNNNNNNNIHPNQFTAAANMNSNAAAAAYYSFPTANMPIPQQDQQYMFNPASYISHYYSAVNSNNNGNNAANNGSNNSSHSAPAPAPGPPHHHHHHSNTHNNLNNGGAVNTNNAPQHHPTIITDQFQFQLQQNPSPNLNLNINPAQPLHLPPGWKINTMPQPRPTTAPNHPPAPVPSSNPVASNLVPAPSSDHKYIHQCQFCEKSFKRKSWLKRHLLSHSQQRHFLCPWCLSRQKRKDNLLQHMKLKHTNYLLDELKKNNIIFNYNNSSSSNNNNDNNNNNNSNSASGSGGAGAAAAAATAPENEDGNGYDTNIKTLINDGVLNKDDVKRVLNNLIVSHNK
# Experiment: PBM E-score (8-mer binding enrichment) (E-score (-0.5 to 0.5)); higher = stronger / more preferred TF binding; most listed sequences are background and not binding sites
# Settings: protein concentration: 200 nM; construct: GST-full length
# Summary of the method: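 Yeast transcription factors carrying a GST tag, as full-length proteins or DNA-binding domains, were produced by PURExpress in vitro transcription/translation. About 100-200 nM protein was applied to universal all-10-mer Agilent arrays, double-stranded by primer extension on fresh or once-stripped slides. Bound protein was detected with fluorescent anti-GST, and scans were normalised with masliner. The Universal PBM Analysis Suite gave each ungapped eight-base word, pooled with its reverse complement, an E-score, a modified Wilcoxon-Mann-Whitney statistic.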
row,Sequence,PBM E-score
1,GGACATCA,-0.00266
2,AGATGTTA,0.158
3,TGAATTCA,0.198
4,GATCGTGA,-0.041
5,CCACGTCA,-0.0638
6,CAGATACG,-0.243
7,AAACGCCT,0.0664
8,AGATATGA,-0.0367
9,AATGTAAC,0.218
10,CCCCGCAC,-0.167
11,GAGGGTTA,-0.0647
12,TAAATGTA,0.346
13,AGGGTCAC,-0.0692
14,CCAATCCG,-0.272
15,AGCAAATC,-0.0446
16,GGAGAGGA,-0.279
17,GACTTCCA,-0.126
18,CATCTCAA,0.0898
19,GTCTGAGA,-0.0514
20,ATCTAGAC,-0.104
21,CTCGAAGA,-0.159
22,TGACCGCA,-0.0417
23,CAGAATAC,0.115
24,AAATCTCA,0.00372
25,CAACACTC,0.129

row,Sequence,PBM E-score
1,GGTGTGAC,-0.198
2,ATTGATAC,0.00627
3,CACATAAA,0.202
4,GCCGTGTA,0.349
5,CGCCCATA,-0.242
6,TAGTCAGA,-0.177
7,ACGTCATC,0.0498
8,AGCTAAGA,-0.067
9,GAGTCAAA,-0.124
10,GCCGACCC,-0.288
11,ACTGTTGC,-0.0412
12,CCATGGGC,-0.252
13,CATTCTCG,-0.0552
14,GGCGGTCA,-0.217
15,TAGTTAAA,0.219
16,ACCCAGCC,-0.259
17,GCGCCGAA,-0.245
18,CATGATCC,-0.0181
19,CCGTGGGA,-0.315
20,CAGAGCCC,-0.199
21,CCTACCTA,0.156
22,AAAGCCGA,-0.225
23,CTGAACTA,0.0444
24,GGCGAGAA,-0.143
25,CCTTGACC,-0.00187

row,Sequence,PBM E-score
1,AGTCCGTG,-0.137
2,TTGCCCAA,0.111
3,GTCGAGAC,-0.0772
4,CGTCGTAG,-0.122
5,CGAGCGAA,-0.185
6,ACGGCACG,0.155
7,TACTCACA,0.0635
8,CGTATGTA,0.309
9,AATTGCAG,0.0282
10,AACTCATG,0.0648
11,GAGGGTCC,-0.284
12,AAGTCTGC,-0.106
13,CTAGACCC,-0.126
14,TGTTTCAA,0.0318
15,ATTTCCGA,-0.201
16,GCAATATA,0.0935
17,AAAGCGCG,0.0677
18,CTGTGCGA,0.0202
19,CTGGAGTA,-0.0249
20,AACAAAGA,0.172
21,AAACAGCA,0.0649
22,CTAATCCC,-0.0715
23,CAGGCTGG,-0.185
24,CTATCGGA,-0.0461
25,ATCCCGGC,-0.234

row,Sequence,PBM E-score
1,AAGCACAC,0.0333
2,CGCGTACG,0.156
3,ACTAATAA,0.142
4,AAACCTCC,-0.102
5,AGTTCTGC,-0.0851
6,AGACCTTG,0.0469
7,ACTCCGAT,-0.0536
8,ATGGGCTC,-0.0868
9,CGATCTAG,-0.138
10,CAACACGC,0.322
11,GCTACGGA,-0.161
12,CGCCCATC,-0.261
13,CGTGAGTC,-0.199
14,ACCCCCAA,-0.0432
15,ACGCCTAA,0.116
16,AGACTTCG,0.0697
17,GTTATCAA,0.0169
18,GCGACGTA,0.0393
19,ACCGCGAA,-0.0635
20,CATACCCC,-0.119
21,CTTACTGC,-0.153
22,CCAATAAC,0.0787
23,CAAGCTTC,-0.207
24,ACGGAACA,-0.0342
25,ACCGGCTG,-0.0846

row,Sequence,PBM E-score
1,AATAGCTC,-0.14
2,ATCGATCG,-0.0942
3,ATGATGGA,-0.0932
4,CGACACGC,0.157
5,AACGTGAA,0.15
6,GGTCATAC,-0.226
7,GCCCCTCA,-0.167
8,ATCAGCGA,-0.168
9,CTTATGGA,-0.267
10,ACGGTCAT,0.0032
11,CGGGAAAG,-0.185
12,CGCATTTC,0.0684
13,ACATGTAC,0.333
14,CTCTGACC,-0.361
15,CTTCTGTC,-0.147
16,CTAATGTA,0.271
17,GAAGAAAC,-0.0108
18,AAACTAAA,0.146
19,ACAGCTAC,0.0626
20,GCTCGTCA,-0.203
21,GGCTAACC,0.0149
22,CATCGCTA,0.0342
23,TGTAAACA,0.387
24,CCGGAAAG,-0.215
25,GTAGGTAA,0.346

row,Sequence,PBM E-score
1,TAACCACA,0.179
2,ATAACGCA,0.218
3,GAGCCCGC,-0.333
4,ATCGCATC,-0.309
5,GATGAAGA,-0.135
6,GGCTCCAA,-0.0568
7,AGAGTGGC,-0.204
8,AGTCTGTA,-0.00969
9,ATAGACCC,0.178
10,CAGTCGAC,-0.0375
11,TGGATCAA,-0.145
12,ACGGATGC,-0.0571
13,ACCCATGA,-0.131
14,GCATACCA,-0.152
15,ACCCCCGA,0.0111
16,CACGGAGC,0.123
17,GGACGTAA,0.185
18,GGGAACTA,-0.0385
19,CCAAATCA,-0.129
20,ATAGAAAC,0.0847
21,AACGTATC,-0.0288
22,CCGGTACC,0.0368
23,AGGTCTGC,-0.276
24,AACTGGAG,-0.249
25,ACAGGACG,0.15

row,Sequence,PBM E-score
1,GTTTAAAC,0.299
2,GTAACGGA,0.175
3,AAGAGCTT,-0.0699
4,GTAAGGAC,-0.194
5,CTGTTTTC,0.0271
6,AACCTCTA,-0.144
7,ACAGGAGC,0.106
8,CTGCGCCA,-0.192
9,AACTTCGC,-0.0198
10,AGGTTGAG,0.0336
11,TGTCCGAA,-0.066
12,ATAATGAC,-0.0486
13,AGCTCAAT,-0.0703
14,AGTAGAGC,-0.013
15,CTTACTCA,-0.123
16,GTGCGGTA,-0.0948
17,CCAGCAGG,-0.00306
18,CCCAGGAC,-0.288
19,GCGTGCCA,-0.0888
20,ATACTATC,0.0544
21,GATTCCAA,-0.0635
22,TATGACCA,0.142

# From the supplement of paper PMC3334620
